The text below walks through data of ChEMBL document CHEMBL4888484, “Replenishing the malaria drug discovery pipeline: Screening and hit evaluation of the MMV Hit Generation Library 1 (HGL1) against asexual blood stage Plasmodium falciparum ,using a nano luciferase reporter read-out” (2022).

Hit rate of the full screen: of about 150,000 compounds, about 540 (0.36%) showed an effect of 50% or more. This is one part of the list.

The subject of this assay is Plasmodium falciparum. As to the kind of experiment: Primary screen in NF54 nanoGlo assay, in single point, at 2uM, 72h; a lower Z score goes with more inhibition. The format is functional, Erythrocyte. As to conditions: timepoint 72 hour.
As usually defined, the % Inhibition is the change of the read-out against control, counted positive when it falls. `COCC1(O)CN(C(=O)c2cc(F)c(Oc3ccccc3)c(F)c2)C1`: the “% Inhibition” value was 2% and the Z score is on record as -0.42.
Consider `CC(NC(=O)N1CC2CCC1C2)c1cccc(-n2cccn2)c1` (stereo not drawn), for which the “% Inhibition” value is listed as -14% and the Z score is recorded as 1.67.
The corresponding values for `O=C1NC2(CCCC2)C(=O)N1Cc1cnn(-c2ccccc2)n1` are 1% and -0.1.
Consider `O=C(Nc1ccc2c(c1)OCCO2)[C@@H]1CCCc2ccccc21`, for which the “% Inhibition” value is on record as -2% and the Z score is reported as 0.35.
Turning to `CC[C@H]1COCCN1C(=O)Nc1ccc2c(c1)N(CC)CC2`, the “% Inhibition” value is given as -7% and the Z score is reported as 0.75.
Turning to `CCn1cc(NC(=O)Cn2cc(-c3cc(C)nc(NC)n3)cn2)nn1`, the “% Inhibition” value is recorded as -6% and the Z score turned out to be 1.04.
The corresponding values for `CNC(=O)NCC(=O)N1CCCCC[C@@H]1CC(C)C` are -9% and 1.58.
As for `CCn1nc(C)c(C(=O)N[C@@H]2[C@@H]3CCO[C@@H]3[C@H]2N2CCCC2)c1C`, the “% Inhibition” value is -7% and the Z score is 1.32.
The corresponding values for `O=C(c1ccccn1)N1CCN(Cc2ccccn2)[C@@H]2CS(=O)(=O)C[C@@H]21` are -10% and 1.79.
As for `C[C@@H](c1cccnc1)N(C)Cc1cnc2cnccn12`, the “% Inhibition” value was -3% and the Z score turned out to be 0.35.
The matching figures for `Cc1nc([C@@H]2CCCCN2Cc2nc(C(C)(C)C)co2)no1`: 2% and -0.34.
The corresponding values for `COc1ccc(C=C(C)CN2CCC[C@H](CNC(C)=O)C2)cc1` are 31% and -3.51.
Take `C[C@H](Oc1ccc(F)cc1)c1nnc2n1CCOC2`: the “% Inhibition” value stood at 14% and the Z score is on record as -1.75.
For `CC(=O)c1ccc(N2CCN(C(=O)C[C@H]3C(=O)NCCN3Cc3ccoc3)CC2)cc1`, the “% Inhibition” value stood at 1% and the Z score is -0.18.
Consider `CC(C)=CCN1CCC[C@H](Cn2cncn2)C1`, for which the “% Inhibition” value is recorded as -17% and the Z score was 2.17.
For the compound `Cn1cccc1C(=O)C(=O)NCCc1cnn(-c2ccccc2)c1`, the “% Inhibition” value is recorded as -9% and the Z score turned out to be 1.53.
The matching figures for `O=S(=O)(c1ccccc1)N1CC(c2nc(CCOCC3CC3)no2)C1`: -2% and 0.24.
Consider `O=C(Oc1ccccc1C(=O)OC1CCCCC1)c1cccnc1`, for which the “% Inhibition” value amounted to 0% and the Z score is on record as -0.05.
The corresponding values for `CC(C)[C@@H]1NC(=O)N(c2ccc(Oc3ccccc3)cc2)C1=O` are 30% and -3.39.
As for `COCCn1nnnc1[C@@H]1CN(C(=O)c2cn3ccc(C)cc3n2)CCO1`, the “% Inhibition” value was -8% and the Z score turned out to be 1.49.
On to `Cc1cc(NC(=O)N[C@H]2CCCN(c3ccccc3F)C2)c[nH]c1=O`, for which the “% Inhibition” value was -1% and the Z score stood at 0.08.
As for `Oc1cccc(C2Nc3ccc(Br)cc3C3OCCCC23)c1` (stereo not drawn), the “% Inhibition” value is -10% and the Z score amounted to 1.14.
Turning to `O=C(NCc1cccnc1N1CCOCC1)c1ccc2cccc(Cl)c2n1`, the “% Inhibition” value is listed as 4% and the Z score is on record as -0.61.
Turning to `COc1c[nH]c(C(=O)N2CCN(c3ccc(F)cc3)CC2)cc1=O`, the “% Inhibition” value stood at 12% and the Z score is -1.58.
Consider `C[C@@H](Cc1ccccc1F)N1CCC(=O)N(Cc2ccncc2)CC1`, for which the “% Inhibition” value came out at 0% and the Z score is given as -0.01.
For the compound `COc1ccc(NC(=O)N2C3CCC2CC2(CC2)C3)c(Br)c1`, the “% Inhibition” value amounted to 14% and the Z score is given as -1.6.
`Cn1nccc1[C@@H]1NC(=O)CC[C@H]1NC(=O)c1cncc(Cl)c1`: the “% Inhibition” value worked out at 3% and the Z score is -0.42.
Regarding `COc1ccccc1CN1CC(=O)N2Cc3[nH]c4ccccc4c3C[C@H]2C1=O`, the “% Inhibition” value is -8% and the Z score is recorded as 1.47.
`COc1cccc(C(=O)N2CCC[C@@](CO)(CCc3ccccc3)C2)c1`: the “% Inhibition” value is -4% and the Z score amounted to 0.83.
The matching figures for `Cc1nc(N2CCN(C(=O)C(C)C)CC2)cc(-n2ccnc2)n1`: 3% and -0.5.
Take `Cc1nc(CN2CCC[C@H](Nc3ccc(Cl)cn3)CC2)c2ccccn12`: the “% Inhibition” value is given as -1% and the Z score is listed as 0.18.
Consider `Cc1ccc(S(=O)(=O)N2c3ccccc3N(C(=O)Nc3ccccc3)[C@@H]2c2ccc(N(C)C)cc2)cc1`, for which the “% Inhibition” value is given as 30% and the Z score was -3.37.
The corresponding values for `CC1CCCC(C)N1S(=O)(=O)c1ccc(NC(=O)COCC2CC2)cc1` (stereo not drawn) are -1% and 0.24.
As for `CC1CC(C#N)(C(=O)NC[C@H](C)Oc2ccc(Cl)cc2)C1` (stereo partly drawn), the “% Inhibition” value is given as -11% and the Z score was determined as 1.37.
Take `O=C(Cn1nnnc1CN1CCCC1)N[C@H](c1ccncc1)c1ccc(F)cc1`: the “% Inhibition” value is -12% and the Z score is given as 1.66.
`Cc1cccc(OCC(=O)N2CC3(C[C@H](N4CCCCC4)CO3)C2)c1`: the “% Inhibition” value is recorded as -8% and the Z score came out at 1.19.
On to `O=C(c1ccc(F)cc1)N1CCC(N2CCS(=O)(=O)CC2)CC1`, for which the “% Inhibition” value is on record as -12% and the Z score is on record as 1.04.
With `CC1CCN(Cc2nc(C3CC3)no2)CC1`, the “% Inhibition” value is -7% and the Z score came out at 0.85.
Consider `CC(C)C[C@H](NC(=O)c1n[nH]c2c1CCC2)c1nnc2ccccn12`, for which the “% Inhibition” value is 6% and the Z score is listed as -0.75.
Take `Cc1c(C(=O)N(Cc2ccccc2)C2CC2)cnn1C`: the “% Inhibition” value is -9% and the Z score came to 1.2.
For `CCC(=O)N(Cc1cc2ccccc2[nH]c1=O)C1CCCCC1`, the “% Inhibition” value is on record as 7% and the Z score is on record as -0.78.
On to `CN1CC[C@@H]2CN(C(=O)Nc3cccc(Cl)c3Cl)C[C@@H]21`, for which the “% Inhibition” value was found to be 4% and the Z score is -0.67.
Consider `CCOC(=O)c1ccc(Nc2nc(C(C(F)(F)F)(C(F)(F)F)C(F)(F)F)nc(C(C(F)(F)F)(C(F)(F)F)C(F)(F)F)n2)cc1`, for which the “% Inhibition” value was -16% and the Z score was 2.11.
As for `CC(C)N(C(=O)c1n[nH]c2ccc(Cl)cc12)C1CC1`, the “% Inhibition” value is given as 25% and the Z score was -3.12.
Consider `CCN1CCN(C(=O)c2cc3n(n2)CCN(Cc2c(Cl)cccc2Cl)C3=O)CC1`, for which the “% Inhibition” value is -9% and the Z score was 0.88.
Consider `Cc1noc(C)c1CN(C)C(=O)NCCc1cc(F)cc2c1OCOC2`, for which the “% Inhibition” value is given as -8% and the Z score amounted to 1.05.
For `O=C(NCc1ccco1)c1ccc2c(c1)C(=O)N(Cc1ccccc1)C2=O`, the “% Inhibition” value is -13% and the Z score turned out to be 1.64.
As to `O=C(Nc1cnnn1-c1ccccc1)[C@H]1CCCO1`, the “% Inhibition” value is recorded as -9% and the Z score amounted to 1.06.
In the case of `CC1CCN(C(=O)c2c3c(nc4ccccc24)C(=O)N(C2CCCCC2)C3)CC1`, the “% Inhibition” value is listed as -8% and the Z score is given as 0.88.
Turning to `CC(C)NC[C@H](O)COC1CCC(C(C)(C)C)CC1` (stereo partly drawn), the “% Inhibition” value is -7% and the Z score worked out at 0.93.
On to `O=C(CN1CCN(c2ccc(F)c(F)c2)C1=O)N1CCc2ccccc2C1`, for which the “% Inhibition” value came to 12% and the Z score is -1.43.
With `O=C(NCCc1ccccc1)c1cc(Cn2cnc3ccccc32)on1`, the “% Inhibition” value is -15% and the Z score turned out to be 1.97.
The matching figures for `CCC1CN(C(=O)C(Cc2ccc3c(c2)OCO3)NC(C)=O)CCO1` (stereo not drawn): 2% and -0.34.
The matching figures for `CC(C)(C)OC(=O)NC1CCCCCCC1C(N)=O` (stereo not drawn): -11% and 1.44.
Consider `CC(=O)N[C@H]1C[C@@H](c2cc(F)cc(F)c2)O[C@@H](C(C)(C)CN(C)C)C1`, for which the “% Inhibition” value is -11% and the Z score was 1.37.
Turning to `CC(NCC1(CCO)CCOC1)c1nc2cc(Cl)ccc2n1C` (stereo not drawn), the “% Inhibition” value is reported as -3% and the Z score is recorded as 0.58.
For `Cc1nccc(C(=O)O[C@@H](C(=O)N2CCCC2)c2ccccc2)n1`, the “% Inhibition” value was -4% and the Z score is listed as 0.44.
Turning to `CN(C(=O)c1cc(O)nc2ccccc12)c1nccs1`, the “% Inhibition” value is given as -9% and the Z score came to 1.16.
For `O=C(CNC(=O)c1ccncc1)N[C@H]1CCCc2ccccc21`, the “% Inhibition” value is -12% and the Z score is recorded as 1.58.
For the compound `O=C(C1=Cc2cc(Br)ccc2OC=C1)N1CCOCC1`, the “% Inhibition” value is reported as 28% and the Z score is reported as -3.79.
Consider `O=C(Nc1nc2c(s1)CN(S(=O)(=O)Cc1cccc(F)c1)CC2)c1cccs1`, for which the “% Inhibition” value is given as -4% and the Z score came out at 0.63.
As for `CC(C)(C)C(=O)/C(=N\OC(=O)Nc1ccc(Cl)cc1)n1cncn1`, the “% Inhibition” value was determined as 41% and the Z score is on record as -5.27.
Regarding `Cc1ccc(NC(=O)CCc2nc(-c3cc4ccccc4nc3O)no2)cc1Cl`, the “% Inhibition” value was determined as 5% and the Z score is -1.
With `CC1(C(=O)NC[C@H]2Cc3ccccc3CN2)CC=CC1`, the “% Inhibition” value stood at 5% and the Z score was -0.84.
`CCc1ccccc1NC(=O)c1cn(-c2ncccc2-c2nc(C(C)C)no2)cn1`: the “% Inhibition” value is listed as -11% and the Z score was determined as 1.47.
Consider `COc1ccc2c(c1)CCN(c1cc3nncn3c(C)n1)CC2`, for which the “% Inhibition” value is reported as 3% and the Z score is reported as -0.36.
`COC1(CNC(C)(C)C(=O)OC(C)(C)C)CCC1`: the “% Inhibition” value was -1% and the Z score amounted to 0.18.
As for `Cc1nc(NC(=O)N2CC[C@H](CO)C2)ccc1Br`, the “% Inhibition” value is reported as -7% and the Z score is reported as 0.69.
`CN(C(=O)c1cccc2cnccc12)C1CCN(c2cnccn2)CC1`: the “% Inhibition” value is reported as 1% and the Z score was -0.2.
Consider `COc1ccc(N2CCN(C(=O)c3cc(-c4cccc(F)c4)ns3)CC2)cc1`, for which the “% Inhibition” value is -1% and the Z score was 0.18.
The corresponding values for `COC1CC(NC(=O)Cc2cccc(N)c2)C1(C)C` (stereo not drawn) are -10% and 1.74.
With `CCOC(=O)CN(C)C1CN(C(=O)c2cc(C)nc3onc(C)c23)C1`, the “% Inhibition” value stood at 3% and the Z score was -0.56.
The corresponding values for `CCN(C(C)=O)c1nc(CN(C)Cc2cccc(F)c2)cs1` are -7% and 0.95.
For `O=C(Nc1ccnn1C1CCN(Cc2ccc3nsnc3c2)CC1)[C@H]1CCOC1`, the “% Inhibition” value was determined as 4% and the Z score is on record as -0.5.
In the case of `CC(C)CC(=O)N1C[C@@H](Oc2cccnc2)C[C@H]1C(=O)NC1CC1`, the “% Inhibition” value is given as -1% and the Z score is reported as 0.16.
For the compound `CCN1CCN(c2ncnc3c2sc(=S)n3-c2ccccc2)CC1`, the “% Inhibition” value is recorded as -1% and the Z score was 0.18.
For the compound `Cc1nnc(NC(=O)N[C@@]2(C)CCOC2)s1`, the “% Inhibition” value is reported as -2% and the Z score turned out to be 0.29.
The matching figures for `CCS(=O)(=O)Oc1ccccc1CN(C(=O)CC(C)C)C(C)C`: -6% and 1.24.
Regarding `Cn1c(Cn2cncn2)nnc1C1CCN(C(=O)CC2CCCCC2)CC1`, the “% Inhibition” value is 0% and the Z score was -0.07.
Regarding `Cc1ccccc1Nc1nc(N)nc(COC(=O)[C@@H](NC(=O)c2ccccc2)C(C)C)n1`, the “% Inhibition” value was -5% and the Z score is recorded as 0.41.
`O=S(=O)(CCN1CCc2cncnc2C1)c1ccccc1`: the “% Inhibition” value was -1% and the Z score is on record as 0.15.
The matching figures for `CCOC(C)c1nccn1CC1CCCO1` (stereo not drawn): -8% and 1.17.
`CC1(C)C(=O)N(Cc2ccc(F)cc2)C(=O)N1CCCCOc1ccccc1`: the “% Inhibition” value turned out to be 10% and the Z score is -1.13.
With `Cc1cc(-c2cccc(C(=O)NCCN3CCCC3)c2)nc(N)n1`, the “% Inhibition” value is recorded as 2% and the Z score is -0.35.
